In PMC8585052:
These are yes or no findings as the source states them, for the method shown. Binding seen in cells or lysates may run through a third protein. Some entries that bind do so weakly or less than the wild type. Tags and fused reporters may be left off the sequences shown.

Protein sequences, listed by entry. Tags and fused reporters are not part of them. Lines headed by an entry give the natural chain unless they say otherwise; changes in a name come on top. Chains listed by the source or under a name are the forms on record and can include a tag or linker. Residues count along the entry.
UniProt Q96EP0: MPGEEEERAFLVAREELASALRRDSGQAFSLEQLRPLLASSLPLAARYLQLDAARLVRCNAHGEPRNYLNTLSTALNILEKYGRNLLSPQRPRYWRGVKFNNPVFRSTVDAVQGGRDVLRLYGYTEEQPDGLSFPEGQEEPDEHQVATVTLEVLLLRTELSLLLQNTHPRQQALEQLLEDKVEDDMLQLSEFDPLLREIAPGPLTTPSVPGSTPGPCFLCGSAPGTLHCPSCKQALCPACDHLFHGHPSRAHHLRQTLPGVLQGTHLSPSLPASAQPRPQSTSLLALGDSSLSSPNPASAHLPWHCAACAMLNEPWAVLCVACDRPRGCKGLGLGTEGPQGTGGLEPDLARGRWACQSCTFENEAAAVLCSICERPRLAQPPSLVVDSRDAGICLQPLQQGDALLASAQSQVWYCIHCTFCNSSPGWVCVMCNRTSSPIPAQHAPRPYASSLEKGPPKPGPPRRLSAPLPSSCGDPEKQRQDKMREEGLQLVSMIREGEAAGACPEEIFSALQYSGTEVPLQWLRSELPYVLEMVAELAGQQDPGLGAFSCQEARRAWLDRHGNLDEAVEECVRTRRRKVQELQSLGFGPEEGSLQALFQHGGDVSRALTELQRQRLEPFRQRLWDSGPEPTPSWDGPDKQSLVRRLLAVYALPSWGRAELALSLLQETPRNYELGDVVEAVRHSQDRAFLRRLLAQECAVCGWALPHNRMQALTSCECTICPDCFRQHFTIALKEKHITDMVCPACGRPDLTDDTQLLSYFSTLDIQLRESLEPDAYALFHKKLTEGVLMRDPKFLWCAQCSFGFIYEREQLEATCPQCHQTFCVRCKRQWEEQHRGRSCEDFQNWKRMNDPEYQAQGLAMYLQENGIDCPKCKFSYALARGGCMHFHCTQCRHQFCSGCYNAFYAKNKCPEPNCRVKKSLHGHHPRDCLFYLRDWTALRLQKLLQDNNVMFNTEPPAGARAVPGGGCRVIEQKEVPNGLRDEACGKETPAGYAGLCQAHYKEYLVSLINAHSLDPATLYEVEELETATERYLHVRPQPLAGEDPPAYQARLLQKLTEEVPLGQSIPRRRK
FLAG-tagged HOIP N563: residues 1-563 of Q96EP0
FLAG-tagged HOIP N349: residues 1-349 of Q96EP0

B1: HA-tagged PKP2 (protein, UniProt Q99959-2 1-837)
chain: MAAPGAPAEYGYIRTVLGQQILGQLDSSSLALPSEAKLKLAGSSGRGGQTVKSLRIQEQVQQTLARKGRSSVGNGNLHRTSSVPEYVYNLHLVENDFVGGRSPVPKTYDMLKAGTTATYEGRWGRGTAQYSSQKSVEERSLRHPLRRLEISPDSSPERAHYTHSDYQYSQRSQAGHTLHHQESRRAALLVPPRYARSEIVGVSRAGTTSRQRHFDTYHRQYQHGSVSDTVFDSIPANPALLTYPRPGTSRSMGNLLEKENYLTAGLTVGQVRPLVPLQPVTQNRASRSSWHQSSFHSTRTLREAGPSVAVDSSGRRAHLTVGQAAAGGSGNLLTERSTFTDSQLGNADMEMTLERAVSMLEADHMLPSRISAAATFIQHECFQKSEARKRVNQLRGILKLLQLLKVQNEDVQRAVCGALRNLVFEDNDNKLEVAELNGVPRLLQVLKQTRDLETKKQITGLLWNLSSNDKLKNLMITEALLTLTENIIIPFSGWPEGDYPKANGLLDFDIFYNVTGCLRNMSSAGADGRKAMRRCDGLIDSLVHYVRGTIADYQPDDKATENCVCILHNLSYQLEAELPEKYSQNIYIQNRNIQTDNNKSIGCFGSRSRKVKEQYQDVPMPEEKSNPKGVEWLWHSIVIRMYLSLIAKSVRNYTQEASLGALQNLTAGSGPMPTSVAQTVVQKESGLQHTRKMLHVGDPSVKKTAISLLRNLSRNLSLQNEIAKETLPDLVSIIPDTVPSTDLLIETTASACYTLNNIIQNSYQNARDLLNTGGIQKIMAISAGDAYASNKASKAASVLLYSLWAHTELHHAYKKAQFKKTDFVNSRTAKAYHSLKD
B2: HA-tagged PKP2 N348 (domain or fragment, UniProt Q99959-2 1-348)
chain: MAAPGAPAEYGYIRTVLGQQILGQLDSSSLALPSEAKLKLAGSSGRGGQTVKSLRIQEQVQQTLARKGRSSVGNGNLHRTSSVPEYVYNLHLVENDFVGGRSPVPKTYDMLKAGTTATYEGRWGRGTAQYSSQKSVEERSLRHPLRRLEISPDSSPERAHYTHSDYQYSQRSQAGHTLHHQESRRAALLVPPRYARSEIVGVSRAGTTSRQRHFDTYHRQYQHGSVSDTVFDSIPANPALLTYPRPGTSRSMGNLLEKENYLTAGLTVGQVRPLVPLQPVTQNRASRSSWHQSSFHSTRTLREAGPSVAVDSSGRRAHLTVGQAAAGGSGNLLTERSTFTDSQLGNAD

Key:
Experiment in all cases: co-IP; tagged proteins co-transfected into HEK293 cells, lysed after 48 h (50 mM Tris-HCl pH 7.5, 10 mM MgCl2, 100 mM NaCl, 0.5% Nonidet P40, 10% glycerol); immunoprecipitated overnight at 4 °C with the indicated antibody plus protein A/G agarose or anti-FLAG M2 gel; Western blot
[1] = molecular target: FLAG-tagged EGFR kinase domain (human) (UniProt P00533)
FLAG-tagged HOIP (human) = FLAG-tagged HOIP (human) (UniProt Q96EP0)
[2] = molecular target: FLAG-tagged HOIP N563 (human) (UniProt Q96EP0)
[3] = molecular target: FLAG-tagged HOIP N349 (human) (UniProt Q96EP0)

binding [1] | binding (FLAG-tagged HOIP (human)) | binding [2] | binding [3] | Binder
binds | binds |  |  | B1
 |  | binds | no binding | B2
